From the supplement of paper PMC9588766
Where a name gives a salt, the structure may show the parent alone. Over roughly 1,900 compounds, “cell viability of compound + 1 nM pemigatinib relative to pemigatinib-only (DMSO) wells” has its median near 0.95; the lowest 2% begin near 0.22. Some of the results follow.

The compounds below were run on PDC-DUC18828 (assay: cell viability of compound + 1 nM pemigatinib relative to pemigatinib-only (DMSO) wells (fraction); PDC-DUC18828 is a patient-derived cholangiocarcinoma cell line; higher = less growth inhibition). Conditions: first compound 1 µM; pemigatinib concentration 1 nM; 72 h.
Protocol: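 Selleck Bioactive library screen in the patient-derived FGFR2 fusion-positive ICC cell line PDC-DUC18828 (500 cells/well). Each compound was tested at 1 uM with 1 nM pemigatinib, in triplicate, for 72 h. Viability was read by CellTiter-Glo and normalised to plate DMSO controls. Value is the paper's averaged normalised viability.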

Compound	cell viability
CC(=O)OCC[N+](C)(C)C [Acetylcholine Chloride] + CCN1C(=O)N(c2c(F)c(OC)cc(OC)c2F)Cc2cnc3[nH]c(CN4CCOCC4)cc3c21 [pemigatinib]	0.934
CC1(C)CCC2=C(O1)c1ccccc1C(=O)C2=O [Beta-Lapachone] + CCN1C(=O)N(c2c(F)c(OC)cc(OC)c2F)Cc2cnc3[nH]c(CN4CCOCC4)cc3c21 [pemigatinib]	0.803
Cc1cc(C)nc(SCC(=O)Nc2ncc(Cc3cccc4ccccc34)s2)n1 + CCN1C(=O)N(c2c(F)c(OC)cc(OC)c2F)Cc2cnc3[nH]c(CN4CCOCC4)cc3c21 [pemigatinib]	0.852
O=c1c2ccccc2nc2n1CCc1c-2[nH]c2ccccc12 [Rutaecarpine] + CCN1C(=O)N(c2c(F)c(OC)cc(OC)c2F)Cc2cnc3[nH]c(CN4CCOCC4)cc3c21 [pemigatinib]	0.957
O=C(O)C(S)=Cc1c[nH]c2ccc(F)cc12 + CCN1C(=O)N(c2c(F)c(OC)cc(OC)c2F)Cc2cnc3[nH]c(CN4CCOCC4)cc3c21 [pemigatinib]	0.99
O=C(/C=C/C=C/c1ccc2c(c1)OCO2)N1CCCCC1 [Piperine] + CCN1C(=O)N(c2c(F)c(OC)cc(OC)c2F)Cc2cnc3[nH]c(CN4CCOCC4)cc3c21 [pemigatinib]	0.951
CCC(=O)OCC(=O)[C@@]1(OC(=O)CC)[C@@H](C)C[C@H]2[C@@H]3CCC4=CC(=O)C=C[C@]4(C)[C@@]3(Cl)[C@@H](O)C[C@@]21C [Beclomethasone dipropionate] + CCN1C(=O)N(c2c(F)c(OC)cc(OC)c2F)Cc2cnc3[nH]c(CN4CCOCC4)cc3c21 [pemigatinib]	0.824
CN(C)CCCn1cc(C2=C(c3c[nH]c4ccccc34)C(=O)NC2=O)c2ccccc21 + CCN1C(=O)N(c2c(F)c(OC)cc(OC)c2F)Cc2cnc3[nH]c(CN4CCOCC4)cc3c21 [pemigatinib]	1
COc1nc(N)nc2c1ncn2[C@@H]1O[C@H](CO)[C@@H](O)[C@@H]1O [Nelarabine] + CCN1C(=O)N(c2c(F)c(OC)cc(OC)c2F)Cc2cnc3[nH]c(CN4CCOCC4)cc3c21 [pemigatinib]	0.956
O=C(Nc1cccc(Nc2ncc(Br)c(NCCc3cnc[nH]3)n2)c1)N1CCCC1 + CCN1C(=O)N(c2c(F)c(OC)cc(OC)c2F)Cc2cnc3[nH]c(CN4CCOCC4)cc3c21 [pemigatinib]	0.842
COc1ccccc1N1CCN(CCCNc2cc(=O)n(C)c(=O)n2C)CC1 [Urapidil HCl] + CCN1C(=O)N(c2c(F)c(OC)cc(OC)c2F)Cc2cnc3[nH]c(CN4CCOCC4)cc3c21 [pemigatinib]	0.967
C[C@@]1(c2cc(-c3cncnc3)c(F)cc2F)CCSC(N)=N1 + CCN1C(=O)N(c2c(F)c(OC)cc(OC)c2F)Cc2cnc3[nH]c(CN4CCOCC4)cc3c21 [pemigatinib]	1.05
C[C@H]1Oc2cc(cnc2N)-c2c(nn(C)c2C#N)CN(C)C(=O)c2ccc(F)cc21 + CCN1C(=O)N(c2c(F)c(OC)cc(OC)c2F)Cc2cnc3[nH]c(CN4CCOCC4)cc3c21 [pemigatinib]	0.926
O=C1NC(=O)[C@@H](c2cn3c4c(cccc24)CCC3)[C@@H]1c1c[nH]c2ccccc12 [Tivantinib (ARQ 197)] + CCN1C(=O)N(c2c(F)c(OC)cc(OC)c2F)Cc2cnc3[nH]c(CN4CCOCC4)cc3c21 [pemigatinib]	0.426
CCc1cnn2c(NCc3ccc[n+]([O-])c3)cc(N3CCCC[C@H]3CCO)nc12 + CCN1C(=O)N(c2c(F)c(OC)cc(OC)c2F)Cc2cnc3[nH]c(CN4CCOCC4)cc3c21 [pemigatinib]	0.286
C[C@H]1[C@H](OC(=O)CCC(=O)O)O[C@@H]2O[C@@]3(C)CC[C@H]4[C@H](C)CC[C@@H]1[C@@]24OO3 [Artesunate] + CCN1C(=O)N(c2c(F)c(OC)cc(OC)c2F)Cc2cnc3[nH]c(CN4CCOCC4)cc3c21 [pemigatinib]	0.705
CN(C)CCNC(=O)c1cccn2c(=O)c3cc4ccccc4cc3nc12 + CCN1C(=O)N(c2c(F)c(OC)cc(OC)c2F)Cc2cnc3[nH]c(CN4CCOCC4)cc3c21 [pemigatinib]	0.897
COC(=O)[C@H](CCSC)NC(=O)c1ccc(NC[C@@H](N)CS)cc1-c1ccccc1 + CCN1C(=O)N(c2c(F)c(OC)cc(OC)c2F)Cc2cnc3[nH]c(CN4CCOCC4)cc3c21 [pemigatinib]	0.876
CCOc1cc(N)c(Cl)cc1C(=O)NCC1CN(Cc2ccc(F)cc2)CCO1 (centres undefined) [Mosapride Citrate] + CCN1C(=O)N(c2c(F)c(OC)cc(OC)c2F)Cc2cnc3[nH]c(CN4CCOCC4)cc3c21 [pemigatinib]	0.988
CCC(C)n1ncn(-c2ccc(N3CCN(c4ccc(OCC5COC(Cn6cncn6)(c6ccc(Cl)cc6Cl)O5)cc4)CC3)cc2)c1=O (centres undefined) [Itraconazole] + CCN1C(=O)N(c2c(F)c(OC)cc(OC)c2F)Cc2cnc3[nH]c(CN4CCOCC4)cc3c21 [pemigatinib]	0.908
Cc1cccc(Nc2ccccc2C(=O)O)c1C [Mefenamic Acid] + CCN1C(=O)N(c2c(F)c(OC)cc(OC)c2F)Cc2cnc3[nH]c(CN4CCOCC4)cc3c21 [pemigatinib]	0.954
CC(C)(C(=O)NCC(F)(F)C(F)(F)F)C(=O)N[C@@H]1C(=O)Nc2ccccc2-c2ccccc21 + CCN1C(=O)N(c2c(F)c(OC)cc(OC)c2F)Cc2cnc3[nH]c(CN4CCOCC4)cc3c21 [pemigatinib]	1.07
Cc1cc(C)c(CNC(=O)c2cc(-c3ccc(N4CCN(C)CC4)nc3)cc3c2c(C)cn3C(C)C)c(=O)[nH]1 + CCN1C(=O)N(c2c(F)c(OC)cc(OC)c2F)Cc2cnc3[nH]c(CN4CCOCC4)cc3c21 [pemigatinib]	0.972
Cc1ccc(-c2c(-c3nn(C)c4ncnc(N5CC[C@H](N6CCCCC6)C5)c34)cnn2C)cc1 + CCN1C(=O)N(c2c(F)c(OC)cc(OC)c2F)Cc2cnc3[nH]c(CN4CCOCC4)cc3c21 [pemigatinib]	0.866
